# Reference: article PMC4336329 (PLoS ONE, 2015)
# Among all 310,000 compounds or so, about 2,200 (0.71%) showed an effect of 50% or more. Effects have a minus sign here. Some of the results follow.
# Biological target: human ether-à-go-go-related gene (hERG) potassium channel (human, UniProt Q12809)
# Assay: primary screen, population patch clamp on CHO cells stably expressing hERG
# Sequence of human ether-à-go-go-related gene (hERG) potassium channel (Q12809 whole entry, looked up): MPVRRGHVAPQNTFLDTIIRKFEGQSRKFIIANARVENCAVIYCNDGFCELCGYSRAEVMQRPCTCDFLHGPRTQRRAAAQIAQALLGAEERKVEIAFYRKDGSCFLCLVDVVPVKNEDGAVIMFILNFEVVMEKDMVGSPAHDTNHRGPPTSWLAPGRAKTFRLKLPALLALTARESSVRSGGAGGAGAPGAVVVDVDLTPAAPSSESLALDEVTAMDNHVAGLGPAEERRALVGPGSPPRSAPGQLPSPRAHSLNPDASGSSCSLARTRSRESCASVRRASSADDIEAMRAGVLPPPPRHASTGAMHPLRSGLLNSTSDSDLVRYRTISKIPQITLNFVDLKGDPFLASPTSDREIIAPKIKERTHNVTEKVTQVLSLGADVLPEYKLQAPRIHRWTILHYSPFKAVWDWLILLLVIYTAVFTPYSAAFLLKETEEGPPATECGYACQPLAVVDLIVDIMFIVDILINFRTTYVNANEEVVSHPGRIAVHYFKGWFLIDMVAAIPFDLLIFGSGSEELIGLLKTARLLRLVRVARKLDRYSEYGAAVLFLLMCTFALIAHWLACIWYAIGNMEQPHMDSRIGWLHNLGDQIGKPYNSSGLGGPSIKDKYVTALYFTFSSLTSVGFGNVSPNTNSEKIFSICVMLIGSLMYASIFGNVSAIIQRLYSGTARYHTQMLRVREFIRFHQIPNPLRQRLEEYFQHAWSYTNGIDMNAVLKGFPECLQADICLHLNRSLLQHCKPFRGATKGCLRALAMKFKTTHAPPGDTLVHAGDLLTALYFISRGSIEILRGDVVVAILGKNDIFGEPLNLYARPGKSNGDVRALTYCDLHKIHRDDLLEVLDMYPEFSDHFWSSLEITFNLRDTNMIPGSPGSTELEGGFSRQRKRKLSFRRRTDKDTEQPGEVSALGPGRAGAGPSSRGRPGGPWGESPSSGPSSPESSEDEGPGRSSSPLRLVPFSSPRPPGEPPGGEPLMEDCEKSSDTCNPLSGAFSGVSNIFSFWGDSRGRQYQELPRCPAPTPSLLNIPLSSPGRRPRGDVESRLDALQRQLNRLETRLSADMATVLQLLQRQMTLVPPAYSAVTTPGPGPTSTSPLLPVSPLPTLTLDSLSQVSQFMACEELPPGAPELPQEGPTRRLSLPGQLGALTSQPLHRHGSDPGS
row,Compound,"hERG current change (%, negative = inhibition) at 1uM [%]"
1,Cc1cc(Nc2ccc(Br)cc2F)n2ncnc2n1,4.12
2,CCN(CC)S(=O)(=O)c1ccc(NC(=O)COC(=O)c2ccc(NC(=O)CC#N)cc2)cc1,17
3,COC(=O)CSc1nc2c(cnn2-c2ccc(Cl)cc2)c(=O)[nH]1,16.9
4,CC(=O)N1CCN(c2ccccc2NC(=O)c2ccco2)CC1,-14.4
5,O=C(O)C(O)(c1ccccc1)C1CCCC1 (centres unmarked),16.5
6,COc1ccc(CC(=O)N2CCN(c3ccccc3)CC2)cc1,14.6
7,Cc1c(C(C)NC(=O)Nc2ccc(F)cc2F)cnn1C (centres unmarked),18.8
8,COCCNC(=O)CCc1nnc(Cc2ccc(-c3ccccc3)cc2)o1,13.7
9,COc1ccc(CCNC(=O)CN2CCN(S(=O)(=O)c3ccc(Cl)cc3)CC2)cc1OC,-3.42
10,O=c1[nH]nc(SCc2nnc(-c3cccc(Cl)c3)o2)n1C1CCCCC1,12.1
11,CC(C)C(NC(=O)c1ccc(Cl)cc1)C(=O)NC1=NCCS1 (centres unmarked),16.2
12,CN(C)CCNC(=O)c1c(NC(=O)c2ccccc2)sc2c1CCCC2,10.9
13,C=CCN1C(=O)c2ccc(C(=O)N(CC)CC(=O)Nc3ccc(OC)cc3)cc2C1=O,3.97
14,Cc1ccc(Nc2nnc(SCc3cc(=O)n4cc(C)ccc4n3)s2)cc1,-17.1
15,O=S(=O)(c1ccccc1)c1nc(-c2ccco2)oc1NCCCn1ccnc1,-26.3
16,O=C(CN1C(=O)CN=C(c2ccccc2)c2ccccc21)NCc1ccco1,10.9
17,Cc1cc(C)cc(N(C(=O)c2ccccn2)C(C(=O)NC2CCCCC2)c2cccs2)c1 (centres unmarked),4.39
18,CC(CC(F)(F)F)N1CCC(n2nccc2NC(=O)CCCc2ccccc2)CC1 (centres unmarked),-0.538
19,COc1cc2c3c(c1OC)C1(C=CC(=NO)C=C1)CC3N(C(C)=O)CC2 (centres unmarked),15.7
20,CCOC(=O)c1cc(C(C)=O)c(=O)[nH]c1C,7.09
21,Brc1ccc(-n2cccc2/C=N/n2cnnc2)cc1,-5.43
22,COc1ccc2cc(C(=O)C3CCCN(C(=O)CCc4ccccn4)C3)ccc2c1 (centres unmarked),-5.66
23,CC(=O)c1ccc(N2CCN(C(=O)CCS(=O)(=O)c3ccc(C)cc3)CC2)cc1,-9.1

row,Compound,"hERG current change (%, negative = inhibition) at 1uM [%]"
1,O=C(COc1ccc2ccc(=O)oc2c1)Nc1c(Cl)cccc1C(F)(F)F,8.4
2,CCN1C(=O)[C@@H]2[C@@H](c3ccc(-c4ccc(C(C)=O)cc4)c(OC)c3)N3CCCC[C@@]3(C(=O)OC)[C@@H]2C1=O.O=C(O)C(F)(F)F,18.8
3,Cc1ccc(O)c(C(=O)c2coc(=N)c(C(=O)NC(C)C)c2)c1,-14.3
4,CS(=O)(=O)CCC(C(=O)n1nnc2ccccc21)N1C(=O)c2ccccc2C1=O (centres unmarked),-3.98
5,NC(=O)/C(=C/c1ccco1)NC(=O)/C=C/c1ccccc1,-1.45
6,Cn1cnnc1SCc1ccccc1Br,12.6
7,O=C(CCSc1nnnn1-c1ccccc1)N1CCOCC1,1.86
8,N#Cc1nc(-c2ccccc2Cl)oc1N1CCN(C(=O)c2ccco2)CC1,2.44
9,CCOC(=O)C1Cc2ccccc2C(=O)O1 (centres unmarked),15.1
10,CCn1c(=O)c(-c2nc3ccccc3[nH]2)c(O)c2ccccc21,2.38
11,Cl.O=C(NCCN1CCOCC1)c1cn(-c2ccccc2)nc1-c1cccs1,6.73
12,Cc1cc2c(cc1S(=O)(=O)NCc1ccccc1)n(C)c(=O)c(=O)n2C,2.88
13,Cn1c(N)c(C(=O)COC(=O)CNC(=O)c2ccccc2Cl)c(=O)n(C)c1=O,-4.52
14,Cc1ccc(NC(=O)NNC(=O)c2cccs2)cc1,-8.12
15,COc1ccc(/C=C/c2onc(C)c2S(=O)(=O)N2CCC(C(=O)N3CCC(C)CC3)CC2)cc1,10.6
16,Cc1cc(C)c(NC(=O)CNC(=O)c2cc([N+](=O)[O-])ccc2N2CCOCC2)c(C)c1,7.99
17,Cc1occc1C(=O)N1CCN(S(=O)(=O)c2ccc(F)cc2)CC1,-1.47
18,O=C1CCc2cc(S(=O)(=O)NCc3ccccc3)cc3c2N1CC3,6.02
19,Cc1cccc(C)c1NC(=O)CNC(=O)c1ccc2ccccc2n1,6.14
20,O=c1c2nnn(-c3ccc(Cl)cc3)c2ncn1Cc1ccccn1,0.0284
21,Cc1cc(NS(=O)(=O)c2ccc(NC(=S)NCc3ccccc3)cc2)no1,8.14
22,O=C(Nc1ccc(N2CCOCC2)cc1)C1(S(=O)(=O)c2ccccc2)CC1,16.4
23,CN(CC(=O)Nc1ccc(N2CCOCC2)cc1)CC(=O)Nc1ccc(N2CCOCC2)cc1,9.97

row,Compound,"hERG current change (%, negative = inhibition) at 1uM [%]"
1,CC(C)c1ccc(C(=O)N(c2ccccn2)C(C)c2ccco2)cc1 (centres unmarked),-3.01
2,O=C(C(Cl)Cl)N1CCN(Cc2ccc3c(c2)OCO3)CC1,12.9
3,COc1ccc(S(=O)(=O)Nc2c(O)c3ccccc3oc2=O)cc1,14.9
4,CCCn1c(=O)c2c(ncn2C)n(CCC)c1=O,3.69
5,N#Cc1cn(CCOc2ccccc2F)c2ccccc12,3.76
6,COc1ccc(CCC(=O)NC(C)C)cc1,14.3
7,Cc1nnc(SCC(=O)c2ccc(Cl)cc2)s1,8.62
8,CC(C)OC(=O)CSc1nc2c(cc1C#N)CCCCC2,10.2
9,Cc1ccc(CC(=O)N2CCN(Cc3ccccc3)CC2)cc1,13.9
10,Cc1ccccc1OCC(=O)NNC(=O)C1CCCCC1C(=O)O (centres unmarked),10
11,O=C(Nc1ccc(Cl)cc1)OCc1cc(-c2ccccc2)on1,5.12
12,COc1ccc(NC(=O)C2CCCN(CCCc3ccccc3)C2)cc1OCC(C)C.O=C(O)/C=C/C(=O)O (centres unmarked),10.3
13,Cl.N[C@@H](Cc1c[nH]c2ccccc12)c1nnc(SCc2c(F)cccc2Cl)o1,13.5
14,CCCCNC(=O)C1CC(c2ccc(C(F)(F)F)cc2)=NO1 (centres unmarked),8.91
15,C/C(=N/NC(=O)CN1CCN(Cc2ccccc2Cl)CC1)c1ccncc1,-18.3
16,CC1CCCCC1NC(=O)c1cn(C)c2ccc(S(=O)(=O)N3CCCC3)cc2c1=O (centres unmarked),17.3
17,O=[N+]([O-])c1ccc(/C=[N+](\[O-])CCO)o1,8.78
18,Cc1ccc(C(=O)NC(=S)Nc2cc(C(F)(F)F)ccc2Cl)cc1,14.8
19,CC1=Nn2c(nnc2C2CCCCC2)SC1,-1.58
20,Cc1ccc(N2CCN(C(=O)N3CCCC3)CC2)cc1C,4.47
21,COC(=O)Cn1nc(-c2ccccc2)n(-c2ccccc2)c1=S,5.53
22,O=C(Nc1cccc2ccccc12)N1CCCN(c2c(Cl)cncc2Cl)CC1,10.9
23,Cc1ccc(S(=O)(=O)N2CCOCC2)cc1NC(=O)COc1cccc(Oc2ccccc2)c1,8.52

row,Compound,"hERG current change (%, negative = inhibition) at 1uM [%]"
1,CC1=NN(C(C#N)c2ccccc2)C(C)(C)C1 (centres unmarked),3.25
2,Cc1cccc(/C(N)=N/OC(=O)c2cccs2)c1,13.4
3,Cc1nc(-c2cccc(S(=O)(=O)N3CCCCC3)c2)cs1,-3.38
4,COc1ccc(/C=C/C=N/NC(=O)COc2ccc(OC)cc2)cc1,11.6
5,Cc1nc(C)c(C(=O)NNC(=O)c2ccc(Br)cc2)s1,16.3
6,COc1cccc(CSc2nnc(-c3ccco3)n2C)c1,9.5
7,Cc1ccc(S(=O)(=O)N/N=C\c2ccc([N+](=O)[O-])o2)cc1C,11.3
8,C/C(O)=C\c1nc2ccccc2oc1=O,13.1
9,O=C(N/N=C/c1ccc([N+](=O)[O-])o1)c1cc(-c2ccncc2)nc2ccccc12,-13.6
10,O=C(CSc1nnc(SCc2ccccc2Cl)s1)N/N=C/c1c[nH]c2ccccc12,10.8
11,COc1cccc(NC(=O)CN(C)C(=O)c2ccc(N3CCCCC3)c([N+](=O)[O-])c2)c1,-6.72
12,Cc1ccc(C)c(NCC(=O)c2ccc(Cl)cc2)c1,16.1
13,CCCNC(=O)C(Cc1ccccc1)NC(=O)c1cccc([N+](=O)[O-])c1 (centres unmarked),14.1
14,CC1CC(C)CN(S(=O)(=O)c2ccc3c(c2)CC(C)N3C(=O)C2CC2)C1 (centres unmarked),16.6
15,COc1ccc(C(CNC(=O)c2oc3ccc(Cl)cc3c2C)N2CCCCC2)cc1 (centres unmarked),10.9
16,CCOC(=O)CC(=O)CSc1ncc(C(=O)OCC)c(N)n1,10.9
17,CC(C)NC(=O)C(c1ccc(F)cc1)N(C(=O)CCC(=O)Nc1ccccn1)C1CCCCC1 (centres unmarked),5.91
18,Cc1ccc(S(=O)(=O)NCc2ccncc2)c(C)c1C,14.8
19,O=C(COC(=O)c1ncc(Cl)c(Cl)c1Cl)NC1CCS(=O)(=O)C1 (centres unmarked),-1.03
20,N#Cc1c(SCC(N)=O)nsc1SCc1ccc(Cl)cc1,3.33
